Data as given in the supplement of paper PMC9446081.
The campaign covered roughly 39,000 compounds. About 220 (0.56%) showed activity. This is one part of the list.

tested on: Escherichia coli K-12 BW25113; assay: relative growth (OD600 normalised to plate interquartile mean) (fraction); higher = less growth inhibition, active = 0.2 or less; conditions: 50 µM; LB; incubation time: overnight (16-24 h)
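Further: static incubation at 37 °C against the wild-type strain, values averaged over two biological replicates.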

Compound	relative growth
C[C@@H]1CN([C@H](C)CO)C(=O)c2cc(NS(=O)(=O)c3ccccc3)ccc2O[C@@H](C)CCCCO[C@@H]1CN(C)C(=O)C1CCCCC1	inactive: 1.01
CC(C)Cn1c(=O)n(C)c(=O)c2[nH]cnc21	inactive: 1.02
C[C@@H]1CN([C@H](C)CO)C(=O)c2c(c3ccccc3n2C)-c2ccccc2CO[C@H]1CN(C)C(=O)c1cc(Cl)cc(Cl)c1	inactive: 1.02
C[C@H](CO)N1C[C@H](C)[C@H](CN(C)S(=O)(=O)c2ccc(F)cc2)Oc2cc(C#Cc3ccc(F)cc3)ccc2S1(=O)=O	inactive: 1.05
C[C@@H]1CCCCO[C@@H](CN(C)Cc2ccc3c(c2)OCO3)[C@H](C)CN([C@H](C)CO)C(=O)c2cc(NS(=O)(=O)c3ccc(Cl)cc3)ccc2O1	inactive: 1.02
C[C@H](CO)N1C[C@H](C)[C@H](CN(C)S(=O)(=O)c2cn(C)cn2)Oc2cc(C#Cc3ccc(F)cc3)ccc2S1(=O)=O	inactive: 1.02
C[C@@H]1CN([C@H](C)CO)C(=O)c2cc(NC(=O)Nc3ccc(C(F)(F)F)cc3)ccc2O[C@@H](C)CCCCO[C@H]1CN(C)C(=O)Nc1ccc(F)cc1	inactive: 1.01
C[C@@H]1CCCCO[C@@H](CN(C)C(=O)Nc2ccccc2)[C@@H](C)CN([C@H](C)CO)C(=O)c2cc(NC(=O)CCC(F)(F)F)ccc2O1	inactive: 0.997
Cc1ccc(S(=O)(=O)Nc2ccc3c(c2)C(=O)N([C@H](C)CO)C[C@H](C)[C@H](CN(C)Cc2ccccc2)OCCCC[C@H](C)O3)cc1	inactive: 1.02
O=C(N[C@@H]1CC[C@@H](CCn2cc(C3(O)CCCC3)nn2)O[C@@H]1CO)C1CCOCC1	inactive: 0.985
C[C@H]1CN([C@@H](C)CO)C(=O)c2cc(-c3ccc(C(=O)N(C)C)cc3)cnc2O[C@H]1CN(C)C(=O)c1cccnc1	inactive: 1.04
O=C(C[C@@H]1CC[C@H]2[C@@H](COC[C@@H](O)CN2S(=O)(=O)c2ccccc2)O1)N1CCOCC1	inactive: 0.98
C[C@@H]1CN([C@H](C)CO)C(=O)c2cccc(NC(=O)c3nc4ccccc4s3)c2O[C@@H]1CN(C)C(=O)Nc1ccc(F)cc1	inactive: 1.02
COc1ccc(C(=O)Nc2ccc3c(c2)C(=O)N(C)[C@H]2CC[C@@H](CC(=O)NCC4CC4)O[C@@H]2CO3)cc1	inactive: 0.979
C[C@@H]1CCCCO[C@@H](CN(C)Cc2ccc(Cl)c(Cl)c2)[C@H](C)CN([C@@H](C)CO)C(=O)c2cc(NS(=O)(=O)c3ccc(F)cc3)ccc2O1	inactive: 1.06
C[C@@H]1CN([C@@H](C)CO)C(=O)c2cc(NC(=O)Nc3ccccc3)ccc2O[C@@H](C)CCCCO[C@@H]1CN(C)C(=O)Nc1ccccc1	inactive: 1.01
C[C@H]1CN([C@@H](C)CO)C(=O)Cc2cc(NC(=O)Cc3ccccc3)ccc2O[C@@H]1CN(C)S(C)(=O)=O	inactive: 1.02
CC1(C)C(C(=O)O)N2C(=O)CC2S1(=O)=O (stereo not given)	inactive: 0.358
CN1C[C@@H](O)COC[C@@H]2O[C@H](CC(=O)N3CCN(c4ccccc4)CC3)CC[C@H]21	inactive: 1.02
CC(C)N1C(=O)C[C@@](C(=O)NCCN2CCOCC2)(c2ccc([N+](=O)[O-])cc2)[C@H]1c1ccc(CO)cc1	inactive: 0.895

Compound	relative growth
C[C@@H]1CCCCO[C@@H](CN(C)Cc2ccncc2)[C@@H](C)CN([C@@H](C)CO)C(=O)c2cc(NC(=O)C3CCCCC3)ccc2O1	inactive: 0.985
C[C@@H]1CCCCO[C@H](CN(C)S(=O)(=O)c2cccs2)[C@@H](C)CN([C@H](C)CO)C(=O)c2cc(NC(=O)CCC(F)(F)F)ccc2O1	inactive: 0.992
O=C(C[C@H]1C=C[C@H](NC(=O)c2cccnc2)[C@H](CO)O1)NCCN1CCCCC1	inactive: 1.01
Nc1ncnc2c1c(I)cn2[C@H]1O[C@@H](CO)[C@@H](O)[C@@H]1O	inactive: 0.926
CCOC(=O)Cn1c(=O)c2c(OC)ccnc2n(C)c1=O	inactive: 0.971
O=C1NC(=S)N/C1=C\c1ccco1	inactive: 1
COCC(=O)N1C[C@@H](C)[C@@H](OC)CN(C)C(=O)c2cc(NC(=O)Nc3cccc(F)c3)ccc2OC[C@H]1C	inactive: 0.986
COCC#Cc1ccc2c(c1)O[C@@H](CN(C)C(=O)Nc1ccccc1F)[C@@H](C)CN([C@H](C)CO)S2(=O)=O	inactive: 0.995
C[C@H]1CN([C@@H](C)CO)C(=O)c2cc(NS(=O)(=O)c3ccccc3)ccc2O[C@@H]1CN(C)S(C)(=O)=O	inactive: 0.998
C[C@@H]1CN([C@H](C)CO)C(=O)c2cc(NC(=O)Nc3ccccc3)ccc2O[C@H]1CN(C)S(C)(=O)=O	inactive: 1
Cc1ccc(CNc2ccccn2)o1	inactive: 1
O=C1COC2(CCN(C(=O)c3ccno3)CC2)CN1	inactive: 1
C[C@@H]1CN([C@@H](C)CO)C(=O)c2cc(NC(=O)Cn3cnnn3)ccc2O[C@H]1CN(C)C(=O)Nc1ccccc1	inactive: 0.987
C=CCOC(=O)[C@H]1[C@@H]2C(=O)O[C@@H](c3ccccc3)[C@@H](c3ccccc3)N2[C@@H](c2ccc(OCCOC(=O)[C@H]3C[C@H]4C(=O)N[C@@H](CC(C)C)C(=O)N4[C@H]3c3cccc(OCCO)c3)cc2)[C@]12C(=O)Nc1ccc(I)cc12	inactive: 1.06
C[C@@H]1CN([C@H](C)CO)C(=O)Cc2cc(NC(=O)CCN3CCOCC3)ccc2O[C@H]1CN(C)Cc1ccc(C(=O)O)cc1	inactive: 1.03
CCN(CC)CCOCCOC(=O)C1(c2ccccc2)CCCC1.O=C(O)CC(O)(CC(=O)O)C(=O)O	inactive: 1.08
Cc1noc(C)c1S(=O)(=O)N(C)C[C@@H]1Oc2ccc(NS(=O)(=O)c3cccs3)cc2CC(=O)N([C@H](C)CO)C[C@H]1C	inactive: 0.964
Cc1cc(C)n(N)c(=O)c1C(=O)O	inactive: 1.05
C[C@@H]1CCCCO[C@H](CN(C)Cc2ccc3c(c2)OCO3)[C@@H](C)CN([C@@H](C)CO)C(=O)c2cc(NC(=O)Nc3cccc4ccccc34)ccc2O1	inactive: 0.979
C[C@@H]1CCCCO[C@@H](CN(C)C(=O)Nc2ccc(C(F)(F)F)cc2)[C@@H](C)CN([C@H](C)CO)C(=O)c2cc(NC(=O)C3CCCCC3)ccc2O1	inactive: 0.993

Compound	relative growth
O=C(Nc1ccc(C(F)(F)F)cc1)Nc1ccc2c(c1)[C@@H]1C[C@@H](CC(=O)N3CCc4ccccc4C3)O[C@H](CO)[C@@H]1O2	inactive: 1.04
COc1ccc(NC(=O)N(C)C[C@@H]2Oc3c(NC(=O)c4ccc(-c5nccs5)cc4)cccc3C(=O)N([C@H](C)CO)C[C@@H]2C)cc1	inactive: 0.996
CC(C)(CO)[C@H](O)C(=O)NCCC(=O)NCCSSCCNC(=O)CCNC(=O)[C@H](O)C(C)(C)CO	inactive: 0.988
C[C@H](CO)N1C[C@H](C)[C@H](CN(C)S(=O)(=O)c2cn(C)cn2)Oc2c(NS(=O)(=O)c3ccc(F)cc3)cccc2C1=O	inactive: 0.984
C[C@@H]1CN([C@H](C)CO)C(=O)c2cc(NS(=O)(=O)c3ccc(F)cc3)ccc2O[C@H]1CN(C)Cc1ccc(-c2ccccc2)cc1	inactive: 0.981
CCS(=O)(=O)NCCc1csc(C)n1	inactive: 0.963
C[C@H]1CCCCO[C@@H](CN(C)Cc2ccncc2)[C@@H](C)CN([C@@H](C)CO)C(=O)c2cc(NC(=O)C3CCCCC3)ccc2O1	inactive: 0.976
COc1ccccc1C#Cc1cnc2c(c1)C(=O)N([C@@H](C)CO)C[C@H](C)[C@@H](CN(C)C(=O)CN(C)C)O2	inactive: 1.04
C[C@H](CO)N1C[C@H](C)[C@H](CN(C)Cc2ccc(C(F)(F)F)cc2)Oc2c(NC(=O)C3CCCCC3)cccc2C1=O	inactive: 0.956
C[C@@H]1CN([C@H](C)CO)C(=O)Cc2cc(NS(=O)(=O)c3ccccc3)ccc2O[C@H]1CN(C)Cc1ccc2c(c1)OCO2	inactive: 1
COc1ccc(NC(=O)N(C)C[C@@H]2OCCCC[C@@H](C)Oc3ccc(NS(=O)(=O)c4ccc(F)cc4)cc3C(=O)N([C@@H](C)CO)C[C@H]2C)cc1	inactive: 1.03
C[C@@H]1CN([C@@H](C)CO)C(=O)c2cc(-c3cccnc3)cnc2O[C@H]1CN(C)Cc1ccc(-c2ccccc2)cc1	inactive: 1.03
Cc1noc(C)c1S(=O)(=O)Nc1ccc2c(c1)C(=O)N([C@@H](C)CO)C[C@H](C)[C@@H](CN(C)Cc1ccc(-c3ccccc3)cc1)O2	inactive: 0.979
C[C@H](CO)N1C[C@H](C)[C@@H](CN(C)C(=O)C2CCOCC2)Oc2cc(-c3ccc(C(=O)N(C)C)cc3)ccc2S1(=O)=O	inactive: 0.974
CCC(=O)Nc1ccc2c(c1)C(=O)N(C)C[C@@H](OC)[C@H](C)CN(Cc1ccc(-c3ccccn3)cc1)[C@H](C)CO2	inactive: 0.995
COc1ccc(CN(C)C[C@H]2Oc3ccc(NC(=O)CCN4CCOCC4)cc3C(=O)N([C@@H](C)CO)C[C@@H]2C)cc1	inactive: 1
CC(=O)N(O)CCCCCNC(=O)CCC(=O)N(O)CCCCCNC(=O)CCC(=O)N(O)CCCCCN	inactive: 0.769
CC(C)(C)c1cc(C(C)(C)C)n(-c2ccc(-n3cccc3)cc2)n1	inactive: 1.03
CO[C@@H]1CN(C)C(=O)c2cc(NC(=O)C3CC3)ccc2OC[C@@H](C)N(C(=O)CN2CCOCC2)C[C@@H]1C	inactive: 1.01
COc1ccc(NC(=O)Nc2ccc3c(c2)C(=O)N([C@@H](C)CO)C[C@H](C)[C@@H](CN(C)C(=O)c2ccccc2)OCCCC[C@H](C)O3)cc1	inactive: 1.03
